Experimental data as given in publication PMC4336329 (PLoS ONE, 2015).
In all, about 310,000 compounds went through this assay and about 2,200 (0.71%) showed an effect of 50% or more. The effect is printed as a negative number. The list shows a part of the results.

These molecules were tested against human ether-à-go-go-related gene (hERG) potassium channel (human, UniProt Q12809) (assay: primary screen, population patch clamp on CHO cells stably expressing hERG).
Sequence of human ether-à-go-go-related gene (hERG) potassium channel (Q12809 whole entry, looked up): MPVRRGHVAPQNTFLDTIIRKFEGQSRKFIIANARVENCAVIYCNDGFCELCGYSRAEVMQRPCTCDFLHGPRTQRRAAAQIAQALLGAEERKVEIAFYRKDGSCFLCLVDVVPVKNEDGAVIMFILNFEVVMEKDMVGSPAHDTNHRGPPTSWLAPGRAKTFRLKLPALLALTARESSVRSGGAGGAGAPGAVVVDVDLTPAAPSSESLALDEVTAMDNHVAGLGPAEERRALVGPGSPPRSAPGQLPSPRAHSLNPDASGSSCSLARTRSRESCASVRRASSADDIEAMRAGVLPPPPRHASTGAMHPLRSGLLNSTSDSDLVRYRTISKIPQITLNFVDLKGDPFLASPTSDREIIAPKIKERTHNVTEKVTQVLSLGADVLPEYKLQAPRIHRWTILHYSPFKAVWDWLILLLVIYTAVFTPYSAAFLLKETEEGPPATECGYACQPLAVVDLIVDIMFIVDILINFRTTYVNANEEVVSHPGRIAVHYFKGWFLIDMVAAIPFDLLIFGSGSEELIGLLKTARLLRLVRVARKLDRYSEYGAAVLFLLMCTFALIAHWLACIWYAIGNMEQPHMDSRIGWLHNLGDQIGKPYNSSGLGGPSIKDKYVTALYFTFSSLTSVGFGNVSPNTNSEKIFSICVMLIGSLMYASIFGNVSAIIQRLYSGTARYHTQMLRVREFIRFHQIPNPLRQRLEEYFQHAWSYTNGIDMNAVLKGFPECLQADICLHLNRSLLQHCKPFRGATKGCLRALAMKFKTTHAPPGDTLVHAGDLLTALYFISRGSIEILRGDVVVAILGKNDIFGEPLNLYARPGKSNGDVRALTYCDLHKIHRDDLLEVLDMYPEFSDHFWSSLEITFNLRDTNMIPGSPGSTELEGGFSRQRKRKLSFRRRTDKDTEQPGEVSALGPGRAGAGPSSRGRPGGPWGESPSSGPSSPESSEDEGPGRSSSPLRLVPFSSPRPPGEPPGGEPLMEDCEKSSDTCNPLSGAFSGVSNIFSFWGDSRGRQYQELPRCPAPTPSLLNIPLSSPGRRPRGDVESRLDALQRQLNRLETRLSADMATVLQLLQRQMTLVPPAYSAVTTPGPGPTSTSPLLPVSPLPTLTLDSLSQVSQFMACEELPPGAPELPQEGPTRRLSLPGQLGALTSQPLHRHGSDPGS

Row | Structure (SMILES) | hERG current change (%, negative = inhibition) at 1uM
1 | CCCC(=O)Nc1cc2c3c(c1)CC(=O)N3CCC2 | -2.72%
2 | Cc1cc(C)cc(NC(N)=S)c1 | 0.401%
3 | COc1ccc(C2CC(c3c(-c4ccccc4)c4cc(Cl)ccc4[nH]c3=O)=NN2S(C)(=O)=O)cc1 (stereo not drawn) | 10.3%
4 | Cc1ccc(OCC(=O)NC2CCSc3ccccc32)cc1 (stereo not drawn) | 10.5%
5 | S=c1nc[nH]c2c1sc1nc(N3CCOCC3)c3c(c12)CCCC3 | 7.57%
6 | NS(=O)(=O)c1cccc(NC(=O)CNC(=O)CC23CC4CC(CC(C4)C2)C3)c1 | 9.32%
7 | CCOc1ccc2nc(NC(=O)c3cnccn3)sc2c1 | -2.59%
8 | CC1CCC2C(=O)N(c3ccc(Cc4ccncc4)cc3)C(=O)C2C1 (stereo not drawn) | 7.58%
9 | Cc1cc(C)cc(NC(=S)/C(=C(\[O-])c2ccc(Cl)cc2Cl)[n+]2ccccc2)c1 | 9.82%
10 | CC(C)(C)c1cc(NS(=O)(=O)c2cccs2)no1 | 18.4%
11 | O=C(O)c1ccc2c(c1)C(=O)N(CCCCCCCN1C(=O)c3ccc(C(=O)O)cc3C1=O)C2=O | 16.5%
12 | CC1(C)Cc2ccccc2C2=NNC(=O)C2=N1 | 4.15%
13 | COc1ccccc1OCC(=O)/C=C1/N(C)c2ccccc2C1(C)C | 2.4%
14 | Cn1c(C(=O)N(Cc2ccccc2)Cc2cccs2)cc2sccc21 | 19.7%
15 | C=CCN1C(=O)c2ccc(C(=O)NCCOc3ccccc3F)cc2C1=O | -5.52%
16 | C=CCNCCCCOc1ccccc1-c1ccccc1.O=C(O)C(=O)O | 0.375%
17 | O=C(Oc1ccccc1C(=S)N1CCCCC1)c1cc([N+](=O)[O-])cc([N+](=O)[O-])c1 | 1.09%
18 | COc1ccc(OC)c(NC(=O)c2sc3ncnc(N4CCN(c5ccccn5)CC4)c3c2C)c1 | 3.06%
19 | O=CN1Cc2[nH]c3ccccc3c2N(c2ccc(Cl)cc2)C1=O | 3.72%

Row | Structure (SMILES) | hERG current change (%, negative = inhibition) at 1uM
20 | Cc1nn(-c2ncc(C(F)(F)F)cc2Cl)c(=O)n1-c1ccccc1 | 19.5%
21 | COc1ccc(C(=O)NCCCNC(=O)c2ccco2)cc1OC | 12.2%
22 | Cc1ccccc1CSc1nc(C(C)(C)C)cc(=O)[nH]1 | 10.3%
23 | C/C(=N\NC(=O)CC1N=C(Cc2ccccc2)NNC1=O)c1ccc(C)cc1 (stereo not drawn) | 2.24%
24 | Cc1nnc(SCc2cccc3ccccc23)s1 | 0.214%
25 | O=C(CSc1ccc2nnc(CCNC(=O)c3ccccc3)n2n1)NCCc1ccccc1 | 9.32%
26 | Cl.NCCCC[C@@H](C(=O)N1CCNCC1)n1cc([C@@H](N)CO)nn1 | 12.1%
27 | CC1=NNC(=O)C1CCC(=O)N/N=C(\C)c1ccccc1 (stereo not drawn) | 19.4%
28 | CCn1c(SCC(=O)NCC2CCCO2)nc2cc(S(=O)(=O)N3CCCCC3)ccc21 (stereo not drawn) | -3.14%
29 | COc1ccc(OC)c(-n2nnnc2SCC(=O)Nc2nc(C)c(C)s2)c1 | -0.808%
30 | O=C(O)[C@H](Cc1ccccc1)NC(=O)N1CCN(c2cccc(C(F)(F)F)c2)CC1 | 17.6%
31 | COc1ccc(OC)c(NC(=O)C(CC(=O)O)NCc2ccco2)c1 (stereo not drawn) | 19.6%
32 | COc1ccc2c(CC(=O)OCC(=O)Nc3sc4c(c3C#N)CCC(C)C4)coc2c1 (stereo not drawn) | 2.99%
33 | Cc1ccc2c(c1)CC1(CN2C)C(=O)NC(=O)N(c2ccc(C)c(C)c2)C1=O (stereo not drawn) | -5.95%
34 | CCC1CCCCN1CCCNS(=O)(=O)c1ccc2c(c1)oc(=O)n2C (stereo not drawn) | 4.98%
35 | CC(NCC(O)COc1ccc(Br)cc1)c1ccccc1.Cl (stereo not drawn) | 3.95%
36 | Cc1oc2cc(OC(=O)c3ccco3)ccc2c(=O)c1-c1nc2ccccc2n1C | 3.42%
37 | CC(C)OC(=O)Cn1nnc(-c2ccccc2)n1 | 8.29%
38 | COc1ccc(NC(=O)c2cc([N+](=O)[O-])ccc2N2CCCC2)cc1 | 13.9%

Row | Structure (SMILES) | hERG current change (%, negative = inhibition) at 1uM
39 | COc1ccc(NC(=S)NC(NC(=O)c2ccc(Cl)cc2Cl)C(Cl)(Cl)Cl)c([N+](=O)[O-])c1 (stereo not drawn) | 18%
40 | CC(C)(C)C(=O)Nc1ccc(-c2csnn2)cc1 | 7.72%
41 | O=C(O)CNc1ccc(S(=O)(=O)C(F)(F)F)cc1[N+](=O)[O-] | 3.17%
42 | Cc1ccc(C(=O)N2C3C=CC(C3)C2(C(F)(F)F)C(F)(F)F)cc1 (stereo not drawn) | -0.174%
43 | CC(=O)NC(CSc1cc(C)nc2ccc(Br)cc12)C(=O)O (stereo not drawn) | 15%
44 | CCOC(=O)C1CCCN(CC(O)COCc2ccc3c(c2)OCO3)C1 (stereo not drawn) | 1.42%
45 | CN1c2ccccc2C(=O)/C(=C\Nc2ncccn2)S1(=O)=O | 13.7%
46 | COC(=O)CCCC(=O)N1CCCC(N(C)CCc2ccccc2)C1 (stereo not drawn) | -4.11%
47 | O=C(O)c1ccc2nnn(O)c2c1 | -1.73%
48 | O=C(CCC(=O)N1CCN(c2ccc(C(F)(F)F)cn2)CC1)c1cccs1 | 7.94%
49 | Cc1occc1-c1nnc(SCC(=O)Nc2ccccc2)n1CCc1ccccc1 | -20.1%
50 | CCOCC(=O)N1CCC(Cc2ccccc2)CC1 | -39.6%
51 | CCOc1ccc(N2C(=O)CC(N(CCc3ccc(S(N)(=O)=O)cc3)C(C)=O)C2=O)cc1 (stereo not drawn) | 12.5%
52 | COC(=O)c1sc(NC(=O)/C=C/c2ccccc2Cl)nc1C | 9.5%
53 | O=C(O)CCc1ccc(-c2ccccc2)o1 | -0.494%
54 | COc1ccc(C2CC(c3ccccc3)=NN2c2ccc(S(N)(=O)=O)cc2)cc1OC (stereo not drawn) | 7.52%
55 | CC(C)[C@H](NC(=O)c1ccccc1Cl)C(=O)NC1CCCCCC1 | 9.93%
56 | O=C(O)c1cc2c(s1)CCCC2 | 16.6%
57 | C=C(C)CN(CC)C(=O)CN1C(=O)NC2(CCc3ccccc32)C1=O (stereo not drawn) | 15.3%
